T1: human ALPL on CHO cells (human, UniProt P05186 18-501)
T1 construct: whole, on cells; also called CHO-ALPL
T1 sequence (looked up): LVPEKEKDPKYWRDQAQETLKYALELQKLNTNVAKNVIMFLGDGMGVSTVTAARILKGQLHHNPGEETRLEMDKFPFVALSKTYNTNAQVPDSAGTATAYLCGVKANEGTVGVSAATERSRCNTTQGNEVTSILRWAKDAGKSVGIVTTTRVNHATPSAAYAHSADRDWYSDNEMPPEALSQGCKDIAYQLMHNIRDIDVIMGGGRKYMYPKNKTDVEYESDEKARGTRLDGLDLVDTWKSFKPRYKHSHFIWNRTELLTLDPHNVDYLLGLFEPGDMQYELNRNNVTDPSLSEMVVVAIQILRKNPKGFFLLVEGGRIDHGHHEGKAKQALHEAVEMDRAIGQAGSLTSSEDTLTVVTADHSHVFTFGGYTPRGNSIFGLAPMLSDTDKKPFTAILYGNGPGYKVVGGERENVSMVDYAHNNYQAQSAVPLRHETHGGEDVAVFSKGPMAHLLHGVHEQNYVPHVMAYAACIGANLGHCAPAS

T2: ALPI His homodimer (human, UniProt P09923 20-503)
T2 construct: Whole entry with His tag; used in ELISA and BLI; also called hALPI
T2 sequence: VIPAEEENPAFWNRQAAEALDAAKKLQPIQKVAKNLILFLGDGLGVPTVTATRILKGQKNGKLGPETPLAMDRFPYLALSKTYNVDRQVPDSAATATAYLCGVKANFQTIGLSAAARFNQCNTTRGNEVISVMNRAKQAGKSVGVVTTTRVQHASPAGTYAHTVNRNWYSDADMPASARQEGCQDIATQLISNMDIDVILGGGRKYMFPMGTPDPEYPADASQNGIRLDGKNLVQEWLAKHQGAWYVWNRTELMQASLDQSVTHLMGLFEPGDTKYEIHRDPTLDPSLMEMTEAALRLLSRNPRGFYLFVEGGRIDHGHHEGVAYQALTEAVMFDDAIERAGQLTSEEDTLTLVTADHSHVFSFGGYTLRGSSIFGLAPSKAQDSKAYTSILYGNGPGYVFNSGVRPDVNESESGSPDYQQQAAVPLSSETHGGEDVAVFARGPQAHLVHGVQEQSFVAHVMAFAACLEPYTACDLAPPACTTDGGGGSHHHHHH

T3: Human ALPL (leucine zipper) (human)
T3 construct: Whole entry: fused with a cysteine stabilised leucine zipper and His tag; also called hALPL
T3 chain: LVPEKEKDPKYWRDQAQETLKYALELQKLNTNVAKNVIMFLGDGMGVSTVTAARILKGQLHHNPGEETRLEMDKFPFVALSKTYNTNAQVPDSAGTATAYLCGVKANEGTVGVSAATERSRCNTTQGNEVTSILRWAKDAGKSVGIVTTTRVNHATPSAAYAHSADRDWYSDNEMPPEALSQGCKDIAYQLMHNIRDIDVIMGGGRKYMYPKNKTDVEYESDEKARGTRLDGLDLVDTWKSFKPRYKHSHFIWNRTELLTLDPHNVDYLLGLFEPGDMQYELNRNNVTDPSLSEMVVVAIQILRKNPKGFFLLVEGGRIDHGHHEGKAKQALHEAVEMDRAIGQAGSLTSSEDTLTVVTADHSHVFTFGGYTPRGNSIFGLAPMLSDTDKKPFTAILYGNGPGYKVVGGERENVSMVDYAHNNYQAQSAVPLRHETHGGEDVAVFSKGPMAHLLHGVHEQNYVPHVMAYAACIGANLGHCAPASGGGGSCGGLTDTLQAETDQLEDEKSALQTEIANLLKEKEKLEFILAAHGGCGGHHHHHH


Columns and labels:
human ALPL on CHO cells = biological target: T1, human ALPL on CHO cells; test: flow cytometry, CHO cells stably expressing human ALPL; VHH-hFc detected with FITC anti-human Ab
Method: VHH-hFc proteins were assessed for human ALPP, ALPPL2, ALPI and ALPL cell-surface binding by flow cytometry. Binders were screened on CHO cells stably expressing human ALPP, ALPPL2, ALPI or ALPL.
Cell surface binding of test agents to hALPP isoforms was characterized in four CHO-ALPP isoform transfectant cell lines (CHO-ALPP, CHO-ALPPL2, CHO-ALPI and CHO-ALPL) and the resulting KDapp values determined. Adherent cells were detached from tissue culture flasks by incubating with 0.1% EDTA/PBS solution at 37° C. for ~10 minutes or until cells detached easily. Cells were re-suspended in ice-cold PBS/2% FCS in 15 ml tubes and centrifuged at 1700 rpm for 5 mins at 4° C. Supernatant was removed and the cell pellet re-suspended in PBS/2% FCS. […] Cells were incubated with 100 μl of test agents at a range of concentrations, plus controls for 1 hr on ice. The sample plate was centrifuged at 1700 rpm for 5 mins at 4° C. The supernatant was removed, and a wash performed by re-suspending the cell pellets in 0.25 mL of ice-cold PBS/2% FCS using a multichannel pipette. Samples were again centrifuged at 1700 rpm for 5 min at 4° C. Supernatant was removed and two further washes performed as described. After the final wash and centrifugation step, excess liquid was removed by blotting the plate on tissue paper. Binding of VHH-hFc agents was determined by adding 100 μl of Fitc-anti-human Ab (ThermoFisher) and incubating for 30 mins on ice in the dark. Wash steps were performed as described previously. All cell pellets were finally re-suspended in 0.28 ml of ice-cold PBS/2% FCS and left on ice in the dark prior to analysis on a Merck-Millipore Guava EasyCyte HT or Thermo Fisher Attune N×T flow cytometer.

ALPI His homodimer = biological target: T2, ALPI His homodimer; test: BLI, antigen immobilised
Method: (§1) Binding kinetics were determined using the Biolayer Interferometry (BLI) Octet K2 or R4 system (Sartorius). […] For KD apparent measurements, the ALPP proteins were immobilised in sodium acetate pH5 buffer to AR2G sensors using amine coupling. To measure 1:1 interactions, AHC biosensors were used to immobilise Fc-fused proteins. All assays were conducted in HBS-EP with a plate temperature of 25° C. Ka (M⁻¹s⁻¹), Kd (s⁻¹) and KD (nM) values were determined using Octet Data Analysis High Throughput software (Sartorius) for Biolayer Interferometry.

[1] = biological target: T3, Human ALPL (leucine zipper); test: BLI, antigen immobilised
Method: as §1

Row | Binder | binding result (human ALPL on CHO cells) | binding result (ALPI His homodimer) | binding result [1]
1 | E06-hFc (S239C) (Fc fusion, [G4S]3 linker) QVHLVESGGGLVQAGGSLRLSCAASRRSFSEYAMGWFRQAPGKEREFVAAIGWSGVIEYADSVKGRFTISRDNAKDTVYLQMNSLKPEDTAVYYCAAGLGIRVVSQTPAYWGQGTQVTVSSGGGGSGGGGSGGGGS[human IgG1 Fc with changes not spelt out] | no binding (tested: 350 nM) | no binding | no binding
2 | E10-hFc (S239C) (Fc fusion, [G4S]3 linker; also called #435) QVQLVESGGGLVQAGGSLRLSCAVSGRALSDYNIGWFRQAPGKEREFVARKTWDGSSTRYDDSVKGRFTVSIEDAKNTAYLQMSSLKTEDTAVYYCAAGRYSRARGWEYDYWGQGTQVTVSSGGGGSGGGGSGGGGS[human IgG1 Fc with changes not spelt out] | no binding (tested: 350 nM) | no binding | no binding
3 | F05-hFc (S239C) (Fc fusion, [G4S]3 linker; also called #436) QVQLVESGGGLVQAGGSLRLSCAASGRAFGDYNIGWFRQAPGKEREFVARRTWDGSSTRYDDSVKGRFTVSIDNAKNTAYLQMNSLKTEDTAVYYCAAGRYSRVRGWEYDYWGQGTQVTVSSGGGGSGGGGSGGGGS[human IgG1 Fc with changes not spelt out] | no binding (tested: 350 nM) | no binding | no binding
4 | A06-hFc (S239C) (Fc fusion, [G4S]3 linker; also called #340) QVHLVESGGGLVQAGGSLRLSCAASGRTFLSMGWFRQAPGKEREFVAAISWTGGSTGYADSVKGRFTISRESDKETMYLQMNSLKPEDTAVYYCAARGDVYYGGDDATRYKYWGQGTQVTVSSGGGGSGGGGSGGGGS[human IgG1 Fc with changes not spelt out] | no binding (tested: 350 nM) | no binding | no binding
5 | B01-hFc (S239C) (Fc fusion, Built from parts; also called #341) QVQLVESGGGLVQAGGSLRLSCEVTRSPMPIDTMAWYRQAPGRQRELVAIISRSGSTNYADSVKGRFTISRNDTKSTMYKSTMYLKMNTLELEDTGVYYCNAVGLWNGAEYWGQGTQVTVSSGGGGSGGGGSGGGGS[human IgG1 Fc with changes not spelt out] | no binding (tested: 350 nM) |  | no binding
6 | D10-hFc (S239C) (Fc fusion, [G4S]3 linker) QVQLVESGGGLVQPGGSLRLSCAASGSIFSVNTMGWYRQAPGKQRDLVAVATSGGTIHYADSVKGRFTISRDNAKNTVYLQMNSLKPEDTAVYYCNLVVPYGMIAGDHDYWGQGTKVTVSSGGGGSGGGGSGGGGS[human IgG1 Fc with changes not spelt out] | no binding (tested: 350 nM) | no binding | no binding
7 | C07-hFc (S239C) (Fc fusion, Built from parts) QVQLVESGGGLVQAGESLRLACAASGTIFSGNAVGWYRQAPEKQREWVSSITDYGDTDYAEAVKGRFTISRDNAKNTVYLQMNSLKPEDTAVYYCYVYQRGESEEYWGQGTQVTVSSGGGGSGGGGSGGGGS[human IgG1 Fc with changes not spelt out] | no binding (tested: 350 nM) | no binding | no binding
8 | D04-hFc (S239C) (Fc fusion, Built from parts; also called #371) QVQLVESGGGLVQPGGSLRLSCAASESTFSINVMGWYRQAPGKQRELVATITSGDITNYADSVKGRFTISRDNAENTVYLRTNSLKPEDTAVYYCNARGEYHSGNEYDYWGQGTQVTVSSGGGGSGGGGSGGGGS[human IgG1 Fc with changes not spelt out] |  | no binding | no binding

Reference: US20260216242A1 (ALMAC DISCOVERY, published 2026)
